Test results published in PubChem BioAssay AID651820 (National Center for Advancing Translational Sciences (NCATS), 2012).
In all, about 340,000 compounds went through this assay and about 12,000 (3.5%) were called active. This list was built around the results that the source calls inconclusive (neither active nor inactive); the mix of calls is not that of the screen. Calls come from the whole dose curve; as a rule, active = well fitted inhibition curve with a large enough effect; inconclusive = small, poorly fitted or top-dose-only effect, or another doubt; inactive = no such curve, though single readings can be large or run the other way. No potency is given beside an inconclusive call; the fits are too rough.

Test: qHTS Assay for Inhibitors of Hepatitis C Virus (HCV)
Conditions: Huh7.5.1 HCVcc-Cre (HCVcc is cell-culture hepatitis C virus) infection, luciferase reporter, 44 h; activity change, negative = inhibition: at 41.8 µM (top of the series) unless noted
How it was run: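 After 44 h co-culture of compound, cells and HCVcc-Cre (~0.5 moi), substrate is added for 15 min at room temperature and luciferase measured over 15 sec. Cells were seeded at 1,000/well and pre-cultured 4 h.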
% is set by controls: 0 for no effect and ±100 for the full control effect; potency is the fitted concentration of half-maximal effect; tags give direction and shape of the fitted curve.

SMILES	activity change, negative = inhibition	Potency
O=[N+]([O-])c1ccc(/C=C/c2nc3ccc([N+](=O)[O-])cc3[nH]2)cc1	inactive: -28.2%	–
CCCOC1CCCN(C(=O)c2cc(COc3ccc(F)c(F)c3)on2)C1 (stereo not drawn)	inactive: -17.7%	–
CCN(c1ccccc1)S(=O)(=O)c1ccc(N2CCN(c3ccc(O)cc3)CC2)nc1	–	inconclusive [inhibitor, partial curve, poor fit]
COc1cc2[nH]c(C(=O)N3CCc4ccccc4C3)cc2c(OC)c1OC	–	inconclusive [inhibitor, partial curve]
COC(=O)/C(=C/Nc1cccc2ccccc12)[N+](=O)[O-]	inactive: -13%	–
CCCc1nnc(SCC(=O)NC2CC2)n1C	inactive: 7.08%	–
Cc1cccc(N2CCN(S(=O)(=O)c3ccc(S(=O)(=O)N4CCCC4)cc3)CC2)c1C	inactive: 11.5%	–
COCCCN=C(c1ccco1)n1c(=S)nc(-c2ccco2)n(CCCOC)c1=S	inactive: -12%	–
O=c1c2cc(N3CCOCC3)ccc2[nH]c(=S)n1Cc1ccc(Cl)cc1	–	inconclusive [inhibitor, single point]
CCOc1cccc(-c2nc3cc(C)ccc3o2)c1	inactive: -11.2%	–
COc1ccccc1NC(=O)CSc1nnnn1-c1ccc(F)cc1	–	inconclusive [inhibitor, full curve, poor fit]
COc1ccc(NC(=O)c2sc3nc(C)nc(N4CCN(c5ccccn5)CC4)c3c2C)c(OC)c1	–	inconclusive [inhibitor, partial curve]
O=C(Nc1ccccc1)Nc1ccccc1	–	inconclusive [inhibitor, single point]
CCOC(=O)CCS(=O)(=O)c1nc(-c2ccccc2)cc(C(F)(F)F)n1	–	active: 10 µM
O=C(Nc1ccccc1C(=O)OCC(=O)c1c[nH]c2ccccc12)c1ccco1	–	inconclusive [inhibitor, partial curve]
COc1ccc(N(C)S(=O)(=O)c2cccc(C(=O)NCc3ccc(C)cc3)c2)cc1	–	inconclusive [inhibitor, single point]
CCn1c(-c2cc(-c3ccccc3OC)nc3ccccc23)n[nH]c1=S	–	inconclusive [inhibitor, full curve, poor fit]
COc1ccc(S(=O)(=O)N(C)C[C@H]2Oc3c(NC(=O)Nc4ccccc4)cccc3C(=O)N([C@H](C)CO)C[C@@H]2C)cc1	–	inconclusive [inhibitor, partial curve]
Cc1ccccc1OCC(=O)O/N=C(\N)Cc1ccc(Cl)cc1	–	inconclusive [inhibitor, single point]
Cc1onc(-c2ccccc2)c1C(=O)Nc1nc2c(s1)C(=O)CC(C)(C)C2	inactive: 9.5%	–
C/C=C/c1ccc(OCCCNC2CCCC2)c(OC)c1	–	active: 0.891 µM
O=C1NC2(CCCCC2)Cc2ccccc21	inactive: 17.2%	–
COc1cccc(/C=C2\SC(=S)N(CCCC(=O)N3CCCCC3)C2=O)c1	–	active: 12.6 µM
COc1ccc2sc(-c3ccc(SC)cc3)c(C#CC(C)(C)O)c2c1	–	active: 2.82 µM
Cc1cc(NC(=O)Cc2ccccc2)c2ccccc2n1	–	inconclusive [inhibitor, full curve]

SMILES	activity change, negative = inhibition	Potency
Cc1noc(C)c1C(=O)OCC(=O)N(C)C1(C#N)CCCCC1	–	inconclusive [inhibitor, partial curve]
O=C(NCCn1cc(SCc2ccccc2)c2ccccc21)c1ccccc1F	–	active: 11.2 µM
Cc1nc2ccc(NS(=O)(=O)c3ccc(Br)cc3)cc2s1	–	inconclusive [inhibitor, single point]
Clc1ccc2c(c1)nc1n2CCCC1	–	active: 25.1 µM
COc1cccc(-c2nc(=S)c3c(n2Cc2ccco2)CCCC3)c1	–	inconclusive [inhibitor, partial curve]
CCOC(=O)CNC(=O)C1Cc2ccccc2CN1S(=O)(=O)c1cccs1 (stereo not drawn)	inactive: 15.6%	–
COC(=O)c1nc(NC(=O)c2cc(OC)c(OC)c(OC)c2)n[nH]1	inactive: 5.81%	–
N#Cc1c(C(F)(F)F)cc(-c2cccs2)nc1SCc1cccnc1	–	inconclusive [inhibitor, single point]
Fc1ccc(N2CCN(c3nc(CN4CCOCC4)nc4scc(-c5ccccc5)c34)CC2)cc1	–	inconclusive [inhibitor, single point]
Cc1ccc(-n2ncc3c2CC(C)(C)CC3NC(=O)CCc2cccnc2)cc1 (stereo not drawn)	–	inconclusive [inhibitor, partial curve]
CCOC(=O)c1c(NCC(C)C)c2ccccc2[nH]c1=O	–	inconclusive [inhibitor, full curve, poor fit]
COc1ccc(NN=Nc2nc3c([nH]2)c(=O)n(C)c(=O)n3C)cc1	–	inconclusive [inhibitor, partial curve]
Cc1nc(N2CCN(Cc3ccc4c(c3)OCO4)CC2)c2cc(-c3ccccc3)sc2n1	–	inconclusive [inhibitor, single point]
CSc1nc(N(C)NC(=O)c2ccc(F)cc2)c2ccccc2n1	–	inconclusive [inhibitor, full curve]
O=C(CCC(=O)N/N=C/c1c[nH]c2ccccc12)NCc1ccccc1	inactive: 30%	–
CC(C)c1cc(C(=O)OCC(=O)NC(=O)NCc2ccco2)c(O)c(C(C)C)c1	–	inconclusive [inhibitor, partial curve]
COc1ccc(CCNC(=O)CSc2nncn2N)cc1OC	inactive: 22.4%	–
CC(=O)Nc1ccc(S(=O)(=O)N2CCN(CC3CC4C=CC3C4)CC2)cc1 (stereo not drawn)	inactive: 0.619%	–
O=C([C@@H]1CC=C[C@@H]2CCN(C3CC3)C(=O)[C@@H]21)N1CCN(c2ccccc2)CC1	inactive: 22.7% [at 8.37 µM]	–
COCc1cc(=O)[nH]c(Nc2nc(C)c3ccccc3n2)n1	–	inconclusive [inhibitor, single point]
CSc1ccc(CCNC(=O)c2ccc(CS(=O)Cc3ccc(Cl)cc3)o2)cc1 (stereo not drawn)	–	inconclusive [inhibitor, single point]
CNc1nn(-c2cccc(Cl)c2)nc1N	–	inconclusive [inhibitor, partial curve]
CCC(=O)N1CCn2c1nc1ccccc12	–	inconclusive [inhibitor, single point]
CC(Sc1n[nH]c(N)n1)C(=O)Nc1ccc(Cl)cn1 (stereo not drawn)	inactive: 3.96%	–
Cc1ccc(C)c(N2CCN(C(=O)CCS(=O)(=O)c3ccc4c(c3)CCN4C(=O)C3CC3)CC2)c1	–	inconclusive [inhibitor, single point]

SMILES	activity change, negative = inhibition	Potency
COCCn1c(SCC(=O)Nc2ccc(OC)c(S(N)(=O)=O)c2)nc2ccccc21	–	inconclusive [inhibitor, single point]
c1ccc(CSc2ccc(-c3ccccn3)nn2)nc1	–	inconclusive [inhibitor, single point]
COc1cc(C2=NOC(C(=O)N3CCCc4ccccc43)C2)cc(OC)c1OC (stereo not drawn)	–	active: 2 µM
CC1CCCCN1S(=O)(=O)c1ccc(C(=O)Nc2nnc(C3CC3)o2)cc1 (stereo not drawn)	–	inconclusive [inhibitor, single point]
COc1ccc(CN(C2CC2)S(=O)(=O)c2ccccc2Br)cc1	–	inconclusive [inhibitor, single point]
CCOCc1nnc(NC(=O)c2cc(Cl)ccc2OC)s1	–	inconclusive [inhibitor, single point]
CC(C)(O)c1[nH]c2ccc(C#N)cc2c1C(C)(C)O	inactive: -6.59%	–
CCCNc1nc(N2CCCC2)nc(N2CCCC2)n1	–	active: 11.2 µM
Cc1nc(Cl)sc1C(=O)Nc1ccc(C(F)(F)F)cc1	–	inconclusive [inhibitor, single point]
O=C(Nc1nc(-c2ccccn2)cs1)c1cc(Cl)ccc1[N+](=O)[O-]	–	active: 10 µM
Cc1ccc(N2C(=O)CS(=O)C(c3ccccc3)C2=O)cc1C (stereo not drawn)	–	inconclusive [inhibitor, partial curve]
Cc1ccccc1-n1ncc(C(C)NC(=O)c2ccco2)c1C (stereo not drawn)	inactive: 22.5%	–
CC(C)Oc1ccc(CSc2nnc3n(C)c(=O)c4c5c(sc4n23)CCCC5)cc1	–	inconclusive [inhibitor, single point]
CCCOc1ccccc1N1C(=O)CC(N(O)c2ccccc2)C1=O (stereo not drawn)	inactive: -2.69%	–
Cn1nc(C(F)(F)F)c(-c2cccc(C(F)(F)F)c2)c1NC(=O)Nc1ccc(F)cc1	–	inconclusive [inhibitor, single point]
COc1ccc(OC)c(NC(=O)COC(=O)c2n[nH]c3ccccc23)c1	–	inconclusive [inhibitor, single point]
C(#CCN1CCOCC1)CCCN1CCOCC1	inactive: 2.92%	–
CCN(C(=O)COC(=O)c1ccccc1Cc1ccccc1)C1CCS(=O)(=O)C1 (stereo not drawn)	–	inconclusive [inhibitor, single point]
COc1ccc(-n2cnc3cc(NS(=O)(=O)c4ccccc4)ccc32)cc1	–	inconclusive [inhibitor, partial curve, poor fit]
Cc1ccc(O)c(/C=N/NC(=O)Cc2ccc(Cl)cc2)c1	–	inconclusive [inhibitor, single point]
CCOc1ccccc1C(=O)Nc1nnc(C(C)C)s1	–	active: 12.6 µM
Cc1nc(C(=O)O)cc2c1[nH]c1ccccc12	inactive: 21.9%	–
COc1cc([C@@H]2c3cc4c(cc3[C@@H](O[C@@H]3O[C@@H]5CO[C@@H](C)O[C@H]5[C@H](O)[C@H]3O)[C@H]3COC(=O)[C@H]23)OCO4)cc(OC)c1O	–	inconclusive [inhibitor, partial curve]
